Measurements taken from PMC12136788.
The list shows a part of the results.

T1: UNK ZnF1-3 (human, UniProt Q9C0B0 31-174)
T1 sequence: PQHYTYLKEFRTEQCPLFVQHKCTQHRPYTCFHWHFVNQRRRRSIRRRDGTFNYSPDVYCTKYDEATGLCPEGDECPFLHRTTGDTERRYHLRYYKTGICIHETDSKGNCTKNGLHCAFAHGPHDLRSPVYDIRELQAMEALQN

B1: chr7:54825262:54825263:-_ENSG00000132432_ENST00000352861|hu_hu|hu_hu_hu_mus_False|28_78 (ssRNA)
RNA: GGGAGUUCUACAGUCCGACGAUCCUGCCGGCUGGGCUCCACAAACUGCAUUACCUGCAUGACUGCCGUUGGAUGGCGGAUUGAGAGCGUAGAGACACGUAGCUCAGGGAGCUUGCUAGCCCAACGGAACCGGAAGCUGGCAACCAACAGAGGAUUGAGCAUCA
B2: chr13:36158134:36158135:+_ENSG00000172915_ENST00000537702|hu_hu|FALSE|FALSE (ssRNA)
RNA: GGGAGUUCUACAGUCCGACGAUCGGUUGUGAAAGGUUCAAUUCGAACAAGCCAGGAUAAAGUAGAUGUUGCUGUUGAAUAAUGGGUAUUAUAAUGGUAGGGUGGGCUUUGAUCAUCUUCCCAUGUCUCAUAACGCUCUGCAUACAACAGAGGAUUGAGCAUCA
B3: chr9:14812383:14812384:-_ENSMUSG00000031934_ENSMUST00000164273|mus_mus|mus_mus_mus_hu_True|1_1 (ssRNA)
RNA: GGGAGUUCUACAGUCCGACGAUCAUAGCCCAGGUAGAUACACGCUAACAGUAUAAUGAUGAGUGUCAGCAGGCGGCAGCUAAUGUACUUGAUGAUUAAAUUAUUAGAAUUUUUCUUUGUCUUCAAGUACUGCUCCACGAUUGGCAACAGAGGAUUGAGCAUCA
B4: chr19:36966019:36966020:+_ENSMUSG00000024811_ENSMUST00000025729|mus_mus|FALSE|FALSE (ssRNA)
RNA: GGGAGUUCUACAGUCCGACGAUCAGCAAGACCCAGAGCUUAAGGCCAUUGAAGAUCUUCUCUAGCCACAAGUCCCCAUCACGUCACACCAGAGCUCUCUGGGAUGUGUGCCUUCUAGACACAAAGGCAUCACCAAUUAAAUUCCAACAGAGGAUUGAGCAUCA
B5: chr2:119558892:119558893:+_ENSMUSG00000027304_ENSMUST00000028767|mus_mus|FALSE|FALSE (ssRNA)
RNA: GGGAGUUCUACAGUCCGACGAUCGCAAGAACCCCACAGCUCCACGGUAAUACUGAGUGUGCUGAGUGGCGGGACUGUGCUAGUUACAAACCAGAAGCAGGCGGGAGGGCAAACACAAACCUAAAGAGAAGAAGCCCCAUCCAACAACAGAGGAUUGAGCAUCA
B6: chr4:17845017:17845018:+_ENSG00000109805_ENST00000514176|hu_mus|hu_hu_hu_mus_False|38_48 (ssRNA)
RNA: GGGAGUUCUACAGUCCGACGAUCGCUCUCUUAACUUGUAUCUUCAUUAAGGAACUCUGCAAGGUUAAGUUUACUUUUCUGUAGCGCGCGGUUUUGGCUCGUCUUGGGUAAUCUCAUCUUCAUUUCUGAUGGUGGUUCAUGAUCCAACAGAGGAUUGAGCAUCA
B7: chr11:76780297:76780298:+_ENSMUSG00000020840_ENSMUST00000021197|mus_mus|FALSE|FALSE (ssRNA)
RNA: GGGAGUUCUACAGUCCGACGAUCGAAGUCAAUGGGCUGGUUGUUAUACAGCGUUUUUCUCCCUCCAACCAUAUUGCUCAAGUAGUCUACUGUGUACAAUUUAUUGUACUUGUGCUGGGGCCGUGGGUCAUUCACAAAACAAAUCAACAGAGGAUUGAGCAUCA
B8: chr3:148802587:148802588:-_ENSG00000071794_ENST00000310053|hu_mus|hu_hu_hu_mus_False|1_68 (ssRNA)
RNA: GGGAGUUCUACAGUCCGACGAUCUCCAACAACUUGUCCUCUCAUAGUUCCAAAUAAAACCAAAUCUACUUCUUCAUCACUCGUUAGGAAGUCAUCUGGAGGAAUAAUGUCUUGGAAUUCAAAAUGUGGCAAGAAAGUUGGAUACAACAGAGGAUUGAGCAUCA
B9: chr3:87734452:87734453:+_ENSMUSG00000048039_ENSMUST00000055984|mus_mus|FALSE|FALSE (ssRNA)
RNA: GGGAGUUCUACAGUCCGACGAUCUCGCAAGCGUCCGAAGCCGGAUGCAGGCGCAGGCGCGCGCCGACGUAUGCCGGGACGGCAAGAACGCGGGCGACAACGGGAAGGCGGCCGGCGCGCACGCGCCCGCAGCGCCCCCACCUCCAACAGAGGAUUGAGCAUCA
B10: chrX:102632674:102632675:+_ENSG00000166681_ENST00000361298|hu_mus|FALSE|FALSE (ssRNA)
RNA: GGGAGUUCUACAGUCCGACGAUCGUGGUUAGACAGCUCCCCCAUAAGGAUGCGUAGACAAUUUCUCAGCUGUAGCUCCCUAAGCUUUCUCCGGAUCUCUCUCAUCUCCUCCAUGAACAUUUCCAUAUCAUCUCCAUCUCCACCCAACAGAGGAUUGAGCAUCA
B11: chrX:160355682:160355683:+_ENSMUSG00000031367_ENSMUST00000069041|mus_mus|FALSE|FALSE (ssRNA)
RNA: GGGAGUUCUACAGUCCGACGAUCGACAUUUUUCUUGGAUGUUUCCUGAACUUCUCCUCCCAAGAGAAAUUCAUCCAAAAUAAAAUAGGCCUUCUCAAAAUUAAAGAUGAUAUCAAGUUCACAUACACUGCCAAAAUACUUGUCCAACAGAGGAUUGAGCAUCA
B12: chr1:244855233:244855234:+_ENSG00000121644_ENST00000302550|hu_mus|hu_hu_hu_mus_True|88_98 (ssRNA)
RNA: GGGAGUUCUACAGUCCGACGAUCCAUCAGAUGGUAGGCAUUGCCUUUGUAUUCUUUCCCCAGUUCUUCUACAAUUUUCUCUAUAUCAUCUUCUAGAAAGUCCGUACUUCCUAGAACAACAGCUUCUUUAAAUUUAAAUGUUUCCAACAGAGGAUUGAGCAUCA
B13: chr8:72619372:72619373:-_ENSMUSG00000002341_ENSMUST00000002412|mus_mus|FALSE|FALSE (ssRNA)
RNA: GGGAGUUCUACAGUCCGACGAUCAAUAAAACCAAAGAAGGCUGGGCAGACAGUUCGCUGAGUUCCAGGUUAGCCUGGUCUAUAUAGCAAGUUCCAGGCCAGCCAGGGCCGCACAGUGAGGCCCUGUCUCAAAACAAAAACAACCAACAGAGGAUUGAGCAUCA
B14: chr11:78564483:78564484:-_ENSMUSG00000049489_ENSMUST00000059468|mus_mus|FALSE|FALSE (ssRNA)
RNA: GGGAGUUCUACAGUCCGACGAUCAAUCUGAAUGAGAUCAGACACAAUAUUGUCAAUGAUUGGCUUGGUAAGGUCAUCACUAAAUACCUGCCACCAAGGCUUCUCGGCCUCACCCUCUGCAGGCACCUCGACUCCAUAGACCUGCAACAGAGGAUUGAGCAUCA
B15: 31381247_31381367_1419_CDS_ENSG00000196792_ENST00000355683|human|control|control (ssRNA)
RNA: GGGAGUUCUACAGUCCGACGAUCUUUCAGGGUAUGGUCCUCAGAAGCAGUAACCAGCACAGGUUCUACAGGAUGAAAAGCUAAUGCCCGUACUCCAUCAAAAUGGCUACGUAGUGUAUACUUGGGAUUCCAUGUCUUUCGAAACAACAGAGGAUUGAGCAUCA
B16: chr12:93046693:93046694:-_ENSMUSG00000020964_ENSMUST00000021347|mus_hu|FALSE|FALSE (ssRNA)
RNA: GGGAGUUCUACAGUCCGACGAUCCUACCUUUCACAGAUACGCUUUCAUACAUAUGGCUCUCUUGGUGACUAACUCUUCGAAUUUGGAAGCAAUUAUCUGGGAGGAAAGUUUUGCUUACCAGGUUUCCCAUAAUUCUCUAAACACAACAGAGGAUUGAGCAUCA
B17: 246755086_246755206_551_CDS_ENSG00000162852_ENST00000366513|human|control|control (ssRNA)
RNA: GGGAGUUCUACAGUCCGACGAUCUGGACUUCUUUUUCCAGGAAUUUUUUUGUCCUUUCCCAAGAAGGCCUGUUCAUCUCUGGAGGCUUCACAAAGGGUGUUUUGCAAGUUCUCACCUGCAGCCACCUCGCAGCUCAAUGUGCACAACAGAGGAUUGAGCAUCA
B18: chr4:156296975:156296976:-_ENSG00000164114_ENST00000311277|hu_hu|FALSE|FALSE (ssRNA)
RNA: GGGAGUUCUACAGUCCGACGAUCUCCUGGAAAGUAGUUCUUUUGGUAACUUUUGGACUCUUUGUAUAUGCCAAAGUGGUGCUAAAAACUUCAUCAGACAUAGUGUAUUUUUUCUCGUUACCUUUAUAAAAUAGCUAAUUAUUACAACAGAGGAUUGAGCAUCA
B19: chr3:103125490:103125491:+_ENSMUSG00000033014_ENSMUST00000106860|mus_mus|motif|central (ssRNA)
RNA: GGGAGUUCUACAGUCCGACGAUCAAGAAGCUUAGCCAACAGAUUUUCAAUUGCACCUUUCUGAUUUUGAAAAGCCUCUUCGGAAAACUGAUACCUAUGUUCUUUGUGCUCCAAAAGUUGACAGUCUCUACACGUCAAUCUAUCCAACAGAGGAUUGAGCAUCA
B20: 83926487_83926607_3978_CDS_ENSMUSG00000030016_ENSMUST00000032088|mouse|control|control (ssRNA)
RNA: GGGAGUUCUACAGUCCGACGAUCCCUUUCUUCUAUGAAGACACUGUCAGAUACUGCUAAUUCAGUUUCAGGGUUUGUAACUUCUGCCUCUUCCUUUUCAAAGUCACUGGUGUACAUCUGCUGGUUUAAAGCAGACUCAUCUAUCAACAGAGGAUUGAGCAUCA
B21: chr7:141445308:141445309:+_ENSG00000106028_ENST00000265304|hu_hu|hu_hu_hu_mus_False|88_98 (ssRNA)
RNA: GGGAGUUCUACAGUCCGACGAUCUAUGAUUGUUGUUGCUUGUCGCCUCACAUUAUUUUUAUCCAUGUACUCGCCAUAGUCCACUUUCCCUUCCACAAAUAUACGAGCCCCCUUUUUCACAUACUGAUAUGCCACAUCUCUGAGCAACAGAGGAUUGAGCAUCA
B22: chr9:21312366:21312367:-_ENSMUSG00000032180_ENSMUST00000034698|mus_hu|motif|central (ssRNA)
RNA: GGGAGUUCUACAGUCCGACGAUCCUUGUUAGGCCCUGCCCCGCACCAGGCAACGCUAACACAGGAUGGGAGGCUUAGGCGGAGGCACAUUUACAGUAGAGGGGCCAGGAAAUCCGAGGCUCACGUUCCAACGCUGCAGUGCCCCAACAGAGGAUUGAGCAUCA

Molecular target: T1, UNK ZnF1-3
Experiment: nsRBNS (natural sequence RNA bind-n-seq); RBNS binding buffer (assumed for nsRBNS): 25 mM Tris pH 7.5, 150 mM KCl, 3 mM MgCl2, 0.01% Triton X-100, 500 ug/ml BSA, 20 U/ml SUPERase-In, 4 C; UNK is unkempt and MSI1 is Musashi-1; names of the RNAs are library labels; protein concentration not given here; high values mean tight binding

In order of falling binding signal:
1. B5  1.8 enrichment R
2. B3  1.52 enrichment R
3. B4  1.42 enrichment R
4. B12  1.37 enrichment R
5. B1  1.28 enrichment R
6. B10  1.22 enrichment R
7. B16  1.15 enrichment R
8. B19  1.12 enrichment R
9. B2  1.04 enrichment R
10. B11  0.934 enrichment R
11. B15  0.912 enrichment R
12. B14  0.833 enrichment R
13. B13  0.8 enrichment R
14. B18  0.766 enrichment R
15. B8  0.755 enrichment R
16. B9  0.755 enrichment R
17. B22  0.723 enrichment R
18. B7  0.722 enrichment R
19. B21  0.68 enrichment R
20. B20  0.511 enrichment R
21. B17  0.491 enrichment R
22. B6  0.311 enrichment R
